These are yes or no findings as the source states them, for the method shown. For some assays here: In cells and extracts the contact can be indirect. Some entries that bind do so weakly or less than the wild type. For some assays here: Sequences can lack the tags named with a protein.
Key:
[1] = target: T1, USP52 (endogenous) (human (endogenous in HeLa or MCF-7)) (UniProt Q504Q3); assay: co-IP; endogenous proteins, whole-cell lysates from HeLa or MCF-7 cells in NETN buffer (50 mM Tris-HCl pH 8.0, 150 mM NaCl, 0.2% Nonidet P-40, 2 mM EDTA), protein G magnetic beads, immunoblot; also HeLa cells released from double-thymidine block (association primarily in S phase)
T1 sequence: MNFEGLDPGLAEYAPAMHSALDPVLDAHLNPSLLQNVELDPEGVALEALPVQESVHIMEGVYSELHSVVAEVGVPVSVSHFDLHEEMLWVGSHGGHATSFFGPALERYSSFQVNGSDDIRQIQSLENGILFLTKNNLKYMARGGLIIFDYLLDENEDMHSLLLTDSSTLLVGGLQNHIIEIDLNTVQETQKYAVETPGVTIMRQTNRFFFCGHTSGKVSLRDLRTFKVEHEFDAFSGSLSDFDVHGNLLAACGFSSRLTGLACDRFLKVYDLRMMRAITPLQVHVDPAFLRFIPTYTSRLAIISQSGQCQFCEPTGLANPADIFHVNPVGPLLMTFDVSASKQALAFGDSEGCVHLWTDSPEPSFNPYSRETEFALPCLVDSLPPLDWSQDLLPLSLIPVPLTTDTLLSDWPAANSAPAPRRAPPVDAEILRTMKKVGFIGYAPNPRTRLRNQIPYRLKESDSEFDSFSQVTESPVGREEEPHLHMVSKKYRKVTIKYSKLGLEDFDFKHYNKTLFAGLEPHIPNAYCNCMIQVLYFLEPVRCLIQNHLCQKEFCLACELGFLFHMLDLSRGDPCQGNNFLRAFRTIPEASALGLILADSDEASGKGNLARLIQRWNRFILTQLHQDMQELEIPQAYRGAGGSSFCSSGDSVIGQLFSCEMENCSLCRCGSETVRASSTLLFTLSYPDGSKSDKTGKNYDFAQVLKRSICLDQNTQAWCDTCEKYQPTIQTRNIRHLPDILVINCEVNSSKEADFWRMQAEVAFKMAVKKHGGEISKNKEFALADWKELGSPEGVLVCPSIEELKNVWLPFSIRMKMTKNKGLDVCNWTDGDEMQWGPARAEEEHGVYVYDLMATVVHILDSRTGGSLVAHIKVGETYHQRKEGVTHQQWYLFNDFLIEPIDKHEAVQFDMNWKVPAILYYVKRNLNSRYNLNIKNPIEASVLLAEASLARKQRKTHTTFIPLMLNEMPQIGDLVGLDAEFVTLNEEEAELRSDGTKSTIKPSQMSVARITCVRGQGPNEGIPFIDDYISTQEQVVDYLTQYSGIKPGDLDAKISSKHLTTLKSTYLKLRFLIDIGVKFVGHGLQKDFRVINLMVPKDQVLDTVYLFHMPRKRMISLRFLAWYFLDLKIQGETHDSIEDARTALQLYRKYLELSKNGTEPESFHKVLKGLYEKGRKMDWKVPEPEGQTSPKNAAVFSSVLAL

Protein sequences, listed by entry. Tags and fused reporters are not part of them. Lines headed by an entry give the natural chain unless they say otherwise; changes in a name come on top. Chains listed by the source or under a name are the forms on record and can include a tag or linker. Residues count along the entry.
UniProt Q9Y294: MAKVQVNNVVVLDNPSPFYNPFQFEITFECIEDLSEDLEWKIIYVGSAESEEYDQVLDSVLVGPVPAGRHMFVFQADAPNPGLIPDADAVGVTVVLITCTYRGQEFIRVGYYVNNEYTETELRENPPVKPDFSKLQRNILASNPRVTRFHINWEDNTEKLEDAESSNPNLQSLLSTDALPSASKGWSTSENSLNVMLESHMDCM
FLAG-tagged ASF1A, first 30 amino acids of the N terminus (HeLa cells, Fig. 1g): residues 1-30 of Q9Y294
UniProt Q9NVP2: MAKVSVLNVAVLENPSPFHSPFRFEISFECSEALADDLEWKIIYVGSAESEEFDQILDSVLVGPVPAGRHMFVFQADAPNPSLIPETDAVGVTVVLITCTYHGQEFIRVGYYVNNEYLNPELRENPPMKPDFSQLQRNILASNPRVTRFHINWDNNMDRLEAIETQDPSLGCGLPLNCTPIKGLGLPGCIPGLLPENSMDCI

[2] = target: T2, FLAG-GFP tagged full length USP52 (in HeLa cells) (human) (UniProt Q504Q3); assay: co-IP; cellular lysates from HeLa cells expressing FLAG-GFP tagged full length or deletions of USP52, or FLAG-tagged full length or deletions of ASF1A
T2 sequence: T1 sequence

[3] = target: ASF1A (endogenous) (human (endogenous in HeLa or MCF-7)) (UniProt Q9Y294); assay: co-IP; cellular lysate of the cytosolic compartment of MCF-7 cells
[4] = target: ASF1A (endogenous) (human (endogenous in HeLa or MCF-7)) (UniProt Q9Y294); assay: co-IP; endogenous proteins, whole-cell lysates from HeLa or MCF-7 cells in NETN buffer (50 mM Tris-HCl pH 8.0, 150 mM NaCl, 0.2% Nonidet P-40, 2 mM EDTA), protein G magnetic beads, immunoblot; also HeLa cells released from double-thymidine block (association primarily in S phase)
FLAG-ASF1A K41R = FLAG-ASF1A K41R (UniProt Q9Y294); assay: co-IP; association of USP52 with wild-type ASF1A and K to R mutants stably expressed in HeLa cells (Supplementary Fig. 3e)
FLAG-ASF1A K134R = FLAG-ASF1A K134R (UniProt Q9Y294); assay: as above
[5] = target: FLAG-ASF1A (HeLa cells stably expressing) (UniProt Q9Y294); assay: as above
FLAG-ASF1A K159R = FLAG-ASF1A K159R (UniProt Q9Y294); assay: as above
FLAG-ASF1A K129R = FLAG-ASF1A K129R (UniProt Q9Y294); assay: as above
FLAG-ASF1A K184R = FLAG-ASF1A K184R (UniProt Q9Y294); assay: as above
FLAG-ASF1A K3R = FLAG-ASF1A K3R (UniProt Q9Y294); assay: as above
ASF1B (FLAG-tagged) = ASF1B (FLAG-tagged) (UniProt Q9NVP2); assay: co-IP; co-immunoprecipitation with FLAG-tagged Histone H3.1, Histone H3.3 or ASF1B (Supplementary Fig. 1a, 1b); cells not given
[6] = target: FLAG-tagged ASF1A, first 30 amino acids of the N terminus (HeLa cells, Fig. 1g) (UniProt Q9Y294); assay: co-IP; cellular lysates from HeLa cells expressing FLAG-GFP tagged full length or deletions of USP52, or FLAG-tagged full length or deletions of ASF1A
[7] = target: FLAG-tagged full length ASF1A (HeLa cells, Fig. 1g) (UniProt Q9Y294); assay: as above
[8] = target: ASF1A (endogenous) (human (endogenous in HeLa or MCF-7)) (UniProt Q9Y294); assay: co-IP; cellular lysate of the nuclear compartment of MCF-7 cells
[9] = target: FLAG-ASF1A (HeLa cells stably expressing) (UniProt Q9Y294); assay: SEC; FLAG-ASF1A affinity eluate from HeLa cells stably expressing FLAG-ASF1A fractionated by FPLC on Superose 6 with high salt buffer; fractions immunoblotted
[10] = target: GST fusion ASF1A, full length (UniProt Q9Y294); assay: pull-down; in vitro pull-down (Supplementary Fig. 1c, 1d); format not shown; taken as GST fusion from bacteria with in vitro transcribed/translated partner; only the target purified

Molecule: ASF1A (endogenous) (from UniProt Q9Y294 1-204)
- binding [1]: binds
- binding [2]: binds

B1: USP52 (endogenous) (enzyme, UniProt Q504Q3 1-1202)
chain: T1 sequence
- binding [3]: binds
- binding [4]: binds
- binding (FLAG-ASF1A K41R): binds
- binding (FLAG-ASF1A K134R): binds
- binding [5]: binds
- binding (FLAG-ASF1A K159R): binds
- binding (FLAG-ASF1A K129R): binds
- binding (FLAG-ASF1A K184R): binds
- binding (FLAG-ASF1A K3R): binds
- binding (ASF1B (FLAG-tagged)): no binding
- binding [6]: binds
- binding [7]: binds
- binding [8]: no binding (condition: nuclear fraction of MCF-7 cells)
- binding [9]: binds

B2: full-length USP52 (FLAG-GFP-tagged, in vitro transcription/translation) (enzyme, UniProt Q504Q3 1-1202)
chain: T1 sequence
- binding [10]: binds
